# The other results are listed elsewhere or left out.
# B1: StcE (Escherichia coli), O82882.2 (protein)
# chain: ADNNSAIYFNTSQPINDLQGSLAAEVKFAQSQILPAHPKEGDSQPHLTSLRKSLLLVRPVKADDKTPVQVEARDDNNKILGTLTLYPPSSLPDTIYHLDGVPEGGIDFTPHNGTKKIINTVAEVNKLSDASGSSIHSHLTNNALVEIHTANGRWVRDIYLPQGPDLEGKMVRFVSSAGYSSTVFYGDRKVTLSVGNTLLFKYVNGQWFRSGELENNRITYAQHIWSAELPAHWIVPGLNLVIKQGNLSGRLNDIKIGAPGELLLHTIDIGMLTTPRDRFDFAKDKEAHREYFQTIPVSRMIVNNYAPLHLKEVMLPTGELLTDMDPGNGGWHSGTMRQRIGKELVSHGIDNANYGLNSTAGLGENSHPYVVAQLAAHNSRGNYANGIQVHGGSGGGGIVTLDSTLGNEFSHEVGHNYGLGHYVDGFKGSVHRSAENNNSTWGWDGDKKRFIPNFYPSQTNEKSCLNNQCQEPFDGHKFGFDAMAGGSPFSAANRFTMYTPNSSAIIQRFFENKAVFDSRSSTGFSKWNADTQEMEPYEHTIDRAEQITASVNELSESKMAELMAEYAVVKVHMWNGNWTRNIYIPTASADNRGSILTINHEAGYNSYLFINGDEKVVSQGYKKSFVSDGQFWKERDVVDTREARKPEQFGVPVTTLVGYYDPEGTLSSYIYPAMYGAYGFTYSDDSQNLSDNDCQLQVDTKEGQLRFRLANHRANNTVMNKFHINVPTESQPTQATLVCNNKILDTKSLTPAPEGLTYTVNGQALPAKENEGCIVSVNSGKRYCLPVGQRSGYSLPDWIVGQEVYVDSGAKAKVLLSDWDNLSYNRIGEFVGNVNPADMKKVKAWNGQYLDFSKPRSMRVVYK
# Key:
# Assay in all cases: glycan array binding signal (z-score within array); higher = stronger binding
# Details in all cases: glycan notation: IUPAC condensed, linker removed
# Gal3S(b1-4)GlcNAc = biological target: Gal3S(b1-4)GlcNAc
# How it was run: (§1)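 Glycan array data came from 3228 arrays in the Consortium for Functional Glycomics database, and only arrays with an available protein sequence were kept. Glycan names were put into IUPAC-condensed notation, and columns mapping to the same glycan were averaged. The binding signal is a within-array Z-score, averaged across arrays of one protein sequence run at different concentrations or buffers and across linkers. A negative Z-score can be read as non-binding.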
# Gal3S(b1-4)GlcNAc6S = biological target: Gal3S(b1-4)GlcNAc6S
# How it was run: as §1
# [1] = biological target: Gal3S(b1-4)[Fuc(a1-3)]Glc
# How it was run: as §1
# [2] = biological target: Gal3S(b1-4)[Fuc(a1-3)]Glc6S
# How it was run: as §1
# Gal3S4S(b1-4)GlcNAc = biological target: Gal3S4S(b1-4)GlcNAc
# How it was run: as §1
# Gal3S6S(b1-4)GlcNAc = biological target: Gal3S6S(b1-4)GlcNAc
# How it was run: as §1
# Gal3S6S(b1-4)GlcNAc6S = biological target: Gal3S6S(b1-4)GlcNAc6S
# How it was run: as §1
# Gal4S(b1-4)GlcNAc = biological target: Gal4S(b1-4)GlcNAc
# How it was run: as §1
# Gal4S6S(b1-4)GlcNAc = biological target: Gal4S6S(b1-4)GlcNAc
# How it was run: as §1
# Gal6P(b1-4)GlcNAc = biological target: Gal6P(b1-4)GlcNAc
# How it was run: as §1
# Gal6S(b1-3)GlcNAc = biological target: Gal6S(b1-3)GlcNAc
# How it was run: as §1
# Gal6S(b1-3)GlcNAc6S = biological target: Gal6S(b1-3)GlcNAc6S
# How it was run: as §1
# Gal6S(b1-4)Glc = biological target: Gal6S(b1-4)Glc
# How it was run: as §1
# Gal6S(b1-4)Glc6S = biological target: Gal6S(b1-4)Glc6S
# How it was run: as §1
# Gal6S(b1-4)GlcNAc = biological target: Gal6S(b1-4)GlcNAc
# How it was run: as §1
# Gal6S(b1-4)GlcNAc6S = biological target: Gal6S(b1-4)GlcNAc6S
# How it was run: as §1
# GalNAc(a1-3)Gal = biological target: GalNAc(a1-3)Gal
# How it was run: as §1
# GalNAc(a1-3)GalNAc = biological target: GalNAc(a1-3)GalNAc
# How it was run: as §1
# [3] = biological target: GalNAc(a1-3)GalNAc(b1-3)Gal(a1-4)Gal(b1-4)Glc
# How it was run: as §1
# [4] = biological target: GalNAc(a1-3)GalNAc(b1-3)Gal(a1-4)Gal(b1-4)GlcNAc
# How it was run: as §1
# GalNAc(b1-3)Gal = biological target: GalNAc(b1-3)Gal
# How it was run: as §1
# [5] = biological target: GalNAc(b1-3)Gal(a1-4)Gal(b1-4)GlcNAc
# How it was run: as §1
# [6] = biological target: GalNAc(b1-3)Gal(a1-4)Gal(b1-4)GlcNAc(b1-3)Gal(b1-4)Glc
# How it was run: as §1
# [7] = biological target: GalNAc(b1-3)Gal(a1-6)Gal(b1-4)Glc
# How it was run: as §1
# GalNAc(b1-3)GalNAc = biological target: GalNAc(b1-3)GalNAc
# How it was run: as §1
# GalNAc(b1-4)Gal(b1-4)Glc = biological target: GalNAc(b1-4)Gal(b1-4)Glc
# How it was run: as §1
# GalNAc(b1-4)GlcNAc = biological target: GalNAc(b1-4)GlcNAc
# How it was run: as §1
# [8] = biological target: GalNAc(b1-4)GlcNAc(b1-2)Man(a1-3)[GalNAc(b1-4)GlcNAc(b1-2)Man(a1-6)]Man(b1-4)GlcNAc(b1-4)GlcNAc
# How it was run: as §1
# GalNAc(b1-4)GlcNAc6S = biological target: GalNAc(b1-4)GlcNAc6S
# How it was run: as §1
# GalNAc(b1-6)GalNAc = biological target: GalNAc(b1-6)GalNAc
# How it was run: as §1
binder,measurement,setting,value
B1,glycan array binding signal (z-score),Gal3S(b1-4)GlcNAc,-0.229
same,glycan array binding signal (z-score),Gal3S(b1-4)GlcNAc6S,-0.14
same,glycan array binding signal (z-score),[1],-0.157
same,glycan array binding signal (z-score),[2],-0.153
same,glycan array binding signal (z-score),Gal3S4S(b1-4)GlcNAc,-0.136
same,glycan array binding signal (z-score),Gal3S6S(b1-4)GlcNAc,-0.175
same,glycan array binding signal (z-score),Gal3S6S(b1-4)GlcNAc6S,-0.152
same,glycan array binding signal (z-score),Gal4S(b1-4)GlcNAc,-0.309
same,glycan array binding signal (z-score),Gal4S6S(b1-4)GlcNAc,-0.123
same,glycan array binding signal (z-score),Gal6P(b1-4)GlcNAc,-0.14
same,glycan array binding signal (z-score),Gal6S(b1-3)GlcNAc,-0.163
same,glycan array binding signal (z-score),Gal6S(b1-3)GlcNAc6S,-0.169
same,glycan array binding signal (z-score),Gal6S(b1-4)Glc,0.013
same,glycan array binding signal (z-score),Gal6S(b1-4)Glc6S,0.95
same,glycan array binding signal (z-score),Gal6S(b1-4)GlcNAc,-0.156
same,glycan array binding signal (z-score),Gal6S(b1-4)GlcNAc6S,-0.14
same,glycan array binding signal (z-score),GalNAc(a1-3)Gal,-0.244
same,glycan array binding signal (z-score),GalNAc(a1-3)GalNAc,-0.221
same,glycan array binding signal (z-score),[3],-0.141
same,glycan array binding signal (z-score),[4],-0.136
same,glycan array binding signal (z-score),GalNAc(b1-3)Gal,-0.184
same,glycan array binding signal (z-score),[5],-0.152
same,glycan array binding signal (z-score),[6],-0.155
same,glycan array binding signal (z-score),[7],-0.162
same,glycan array binding signal (z-score),GalNAc(b1-3)GalNAc,-0.265
same,glycan array binding signal (z-score),GalNAc(b1-4)Gal(b1-4)Glc,-0.176
same,glycan array binding signal (z-score),GalNAc(b1-4)GlcNAc,0.006
same,glycan array binding signal (z-score),[8],-0.149
same,glycan array binding signal (z-score),GalNAc(b1-4)GlcNAc6S,-0.168
same,glycan array binding signal (z-score),GalNAc(b1-6)GalNAc,-0.141
